Laboratory results published in the GPR68 mutational scans of Howard et al. (2025).

B1: GPR68, Q15743 (parent)
chain: MGNITADNSSMSCTIDHTIHQTLAPVVYVTVLVVGFPANCLSLYFGYLQIKARNELGVYLCNLTVADLFYICSLPFWLQYVLQHDNWSHGDLSCQVCGILLYENIYISVGFLCCISVDRYLAVAHPFRFHQFRTLKAAVGVSVVIWAKELLTSIYFLMHEEVIEDENQHRVCFEHYPIQAWQRAINYYRFLVGFLFPICLLLASYQGILRAVRRSHGTQKSRKDQIQRLVLSTVVIFLACFLPYHVLLLVRSVWEASCDFAKGVFNAYHFSLLLTSFNCVADPVLYCFVSETTHRDLARLRGACLAFLTCSRTGRAREAYPLGAPEASGKSGAQGEEPELLTKLHPAFQTPNSPGSGGFPTGRLA

Assays:
[1] = variants of: B1; test: cAMP reporter score (Enrich2 score, wild type = 0); higher = more signal; HEK293T, FACS bins
[2] = variants of: B1; test: surface expression score (Enrich2 score, wild type = 0); higher = more signal; HEK293T, FACS bins

| Variant | cAMP reporter score ([1]; pH 5.5) | cAMP reporter score ([1]; pH 6) | cAMP reporter score ([1]; pH 6, modulator: ogerin) | cAMP reporter score ([1]; pH 6.5, modulator: ogerin) | surface expression score [2] |
| --- | --- | --- | --- | --- | --- |
| L150del | -0.704 | -0.279 | -1.21 | -0.691 | 0.4 |
| T152_S153del | -1.16 | -1.6 | -1.37 | -1.27 | -1.55 |
| T152_S153insGSG | -1.1 | – | -2.27 | -1.37 | -1.75 |
| T152del | 0.224 | -0.27 | -0.774 | -0.412 | 1.98 |
| S153_I154insGS | -1.27 | -1.31 | -1.03 | -1.21 | 0.202 |
| I154_Y155del | -1.43 | -1.81 | -1.43 | -1.46 | -2.09 |
| Y155_F156insGSG | -1.8 | -0.992 | -1.95 | -1.08 | -1.91 |
| Y155del | -1.57 | -0.601 | – | -1.23 | 0.003 |
| F156_L157insGSG | -1.39 | -0.934 | -2.15 | -1.11 | -1.28 |
| L157A | -1.41 | -1.14 | -1.28 | -0.576 | -0.743 |
| L157C | -1.03 | -0.994 | -0.595 | -0.583 | 1.02 |
| L157D | 0.866 | – | – | -1.03 | -1.64 |
| L157E | 0.463 | – | – | – | -0.205 |
| L157F | 0.89 | 1.79 | 0.136 | -0.118 | 0.328 |
| L157H | 0.902 | -0.385 | – | -0.861 | – |
| L157I | 0.473 | 0.549 | 0.87 | 0.849 | 0.766 |

| Variant | cAMP reporter score ([1]; pH 5.5) | cAMP reporter score ([1]; pH 6) | cAMP reporter score ([1]; pH 6, modulator: ogerin) | cAMP reporter score ([1]; pH 6.5, modulator: ogerin) | surface expression score [2] |
| --- | --- | --- | --- | --- | --- |
| L157K | -1.61 | 1.42 | – | – | -0.358 |
| L157M | -1.56 | -0.759 | -1.68 | -1.03 | -2.69 |
| L157N | 0.334 | 0.61 | -2.18 | -0.417 | 1.84 |
| L157P | -0.482 | – | -0.672 | – | -0.287 |
| L157Q | -0.824 | – | -1.44 | -0.714 | -0.927 |
| L157R | -0.415 | -0.151 | -1.64 | -1.27 | -0.934 |
| L157S | -1.08 | -0.811 | -1.64 | -1.1 | -0.983 |
| L157T | -1.61 | -1.05 | -0.769 | -0.729 | -1.04 |
| L157V | -1.39 | -0.219 | 0.569 | -1.64 | -0.325 |
| L157W | 0.464 | 0.931 | 0.854 | -1.11 | 1.57 |
| L157Y | -0.13 | -1.4 | 0.699 | -0.65 | 1.33 |
| L157_M158del | -1.8 | -1.29 | -1.3 | -0.858 | -2.29 |
| L157_M158insG | -0.43 | -0.256 | -0.955 | -1.46 | -1.07 |
| L157_M158insGS | -1.12 | -1.24 | -1.29 | -1.02 | -0.455 |
| L157del | -1.03 | -0.635 | -1.16 | -1.33 | -0.686 |
| H159_E160del | -0.977 | -1.06 | -1.3 | -1.36 | 0.665 |

The least precise scores are not listed. The source holds two more conditions with little spread; they are left out. Names with del lack the residues named; names with ins carry added residues between the positions named. For some assays here: The concentration of ogerin is not given here.
